Data reported in the supplement of paper PMC8728848.
The list shows a part of the results.

What was measured:
Assay in all cases: glycan array binding signal (z-score within array); higher = stronger binding
Settings in all cases: glycan notation: IUPAC condensed, linker removed
[1] = target: Gal(b1-4)GlcNAc(b1-3)Gal(b1-4)GlcNAc(b1-3)Gal(b1-4)GlcNAc(b1-3)Gal(b1-4)GlcNAc(b1-2)Man(a1-3)[Gal(b1-4)GlcNAc(b1-3)Gal(b1-4)GlcNAc(b1-3)Gal(b1-4)GlcNAc(b1-3)Gal(b1-4)GlcNAc(b1-2)Man(a1-6)]Man(b1-4)GlcNAc(b1-4)GlcNAc
Outline: (§1)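 The binding signal is a Z-score computed within each array and averaged over linkers. Arrays of the same protein sequence at different concentrations or buffers were also averaged together. Data originate from 3228 arrays in the Consortium for Functional Glycomics database, kept only where the protein sequence was available.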

[2] = target: Gal(b1-4)GlcNAc(b1-3)Gal(b1-4)GlcNAc(b1-3)Gal(b1-4)GlcNAc(b1-3)Gal(b1-4)GlcNAc(b1-2)Man(a1-3)[Gal(b1-4)GlcNAc(b1-3)Gal(b1-4)GlcNAc(b1-3)Gal(b1-4)GlcNAc(b1-3)Gal(b1-4)GlcNAc(b1-2)Man(a1-6)]Man(b1-4)GlcNAc(b1-4)[Fuc(a1-6)]GlcNAc
Outline: as §1

[3] = target: Gal(b1-4)GlcNAc(b1-3)Gal(b1-4)GlcNAc(b1-3)Gal(b1-4)GlcNAc(b1-3)Gal(b1-4)GlcNAc(b1-2)[Gal(b1-4)GlcNAc(b1-3)Gal(b1-4)GlcNAc(b1-3)Gal(b1-4)GlcNAc(b1-3)Gal(b1-4)GlcNAc(b1-6)]Man(a1-6)[Gal(b1-4)GlcNAc(b1-3)Gal(b1-4)GlcNAc(b1-3)Gal(b1-4)GlcNAc(b1-3)Gal(b1-4)GlcNAc(b1-2)Man(a1-3)]Man(b1-4)GlcNAc(b1-4)[Fuc(a1-6)]GlcNAc
Outline: as §1

[4] = target: Gal(b1-4)GlcNAc(b1-3)Gal(b1-4)GlcNAc(b1-3)Gal(b1-4)GlcNAc(b1-3)Gal(b1-4)GlcNAc(b1-3)Gal(b1-4)GlcNAc(b1-2)Man(a1-3)[Gal(b1-4)GlcNAc(b1-3)Gal(b1-4)GlcNAc(b1-3)Gal(b1-4)GlcNAc(b1-3)Gal(b1-4)GlcNAc(b1-3)Gal(b1-4)GlcNAc(b1-2)Man(a1-6)]Man(b1-4)GlcNAc(b1-4)GlcNAc
Outline: as §1

[5] = target: Gal(b1-4)GlcNAc(b1-3)Gal(b1-4)GlcNAc(b1-3)Gal(b1-4)GlcNAc(b1-3)Gal(b1-4)GlcNAc(b1-3)Gal(b1-4)GlcNAc(b1-2)Man(a1-3)[Gal(b1-4)GlcNAc(b1-3)Gal(b1-4)GlcNAc(b1-3)Gal(b1-4)GlcNAc(b1-3)Gal(b1-4)GlcNAc(b1-3)Gal(b1-4)GlcNAc(b1-2)Man(a1-6)]Man(b1-4)GlcNAc(b1-4)[Fuc(a1-6)]GlcNAc
Outline: as §1

[6] = target: Gal(b1-4)GlcNAc(b1-3)Gal(b1-4)GlcNAc(b1-3)Gal(b1-4)GlcNAc(b1-3)Gal(b1-4)GlcNAc(b1-3)Gal(b1-4)GlcNAc(b1-2)[Gal(b1-4)GlcNAc(b1-3)Gal(b1-4)GlcNAc(b1-3)Gal(b1-4)GlcNAc(b1-3)Gal(b1-4)GlcNAc(b1-3)Gal(b1-4)GlcNAc(b1-6)]Man(a1-6)[Gal(b1-4)GlcNAc(b1-3)Gal(b1-4)GlcNAc(b1-3)Gal(b1-4)GlcNAc(b1-3)Gal(b1-4)GlcNAc(b1-3)Gal(b1-4)GlcNAc(b1-2)Man(a1-3)]Man(b1-4)GlcNAc(b1-4)[Fuc(a1-6)]GlcNAc
Outline: as §1

[7] = target: Gal(b1-4)GlcNAc(b1-3)Gal(b1-4)GlcNAc(b1-3)Gal(b1-4)GlcNAc(b1-3)Gal(b1-4)GlcNAc(b1-3)Gal(b1-4)GlcNAc(b1-3)Gal(b1-4)GlcNAc(b1-2)Man(a1-3)[Gal(b1-4)GlcNAc(b1-3)Gal(b1-4)GlcNAc(b1-3)Gal(b1-4)GlcNAc(b1-3)Gal(b1-4)GlcNAc(b1-3)Gal(b1-4)GlcNAc(b1-3)Gal(b1-4)GlcNAc(b1-2)Man(a1-6)]Man(b1-4)GlcNAc(b1-4)GlcNAc
Outline: as §1

[8] = target: Gal(b1-4)GlcNAc(b1-3)Gal(b1-4)GlcNAc(b1-3)GalNAc
Outline: as §1

[9] = target: Gal(b1-4)GlcNAc(b1-3)Gal(b1-4)GlcNAc(b1-3)[Gal(b1-4)GlcNAc(b1-3)Gal(b1-4)GlcNAc(b1-6)]GalNAc
Outline: as §1

[10] = target: Gal(b1-4)GlcNAc(b1-3)Gal(b1-4)GlcNAc(b1-6)[Gal(b1-3)]GalNAc
Outline: as §1

[11] = target: Gal(b1-4)GlcNAc(b1-3)Gal(b1-4)[Fuc(a1-3)]GlcNAc(b1-3)Gal(b1-4)[Fuc(a1-3)]GlcNAc
Outline: as §1

[12] = target: Gal(b1-4)GlcNAc(b1-3)GalNAc
Outline: as §1

[13] = target: Gal(b1-4)GlcNAc(b1-3)[Fuc(a1-3)GlcNAc(b1-6)]Gal(b1-4)Glc
Outline: as §1

[14] = target: Gal(b1-4)GlcNAc(b1-3)[Gal(b1-4)GlcNAc(b1-6)]Gal(b1-4)GlcNAc
Outline: as §1

[15] = target: Gal(b1-4)GlcNAc(b1-3)[GlcNAc(b1-6)]Gal(b1-4)GlcNAc
Outline: as §1

[16] = target: Gal(b1-4)GlcNAc(b1-6)Gal(b1-4)GlcNAc
Outline: as §1

[17] = target: Gal(b1-4)GlcNAc(b1-6)GalNAc
Outline: as §1

[18] = target: Gal(b1-4)GlcNAc(b1-6)[Gal(b1-3)]GalNAc
Outline: as §1

[19] = target: Gal(b1-4)GlcNAc(b1-6)[Gal(b1-4)GlcNAc(b1-3)]GalNAc
Outline: as §1

Gal(b1-4)GlcNAc6P = target: Gal(b1-4)GlcNAc6P
Outline: as §1

Gal(b1-6)Gal = target: Gal(b1-6)Gal
Outline: as §1

Gal3S(b1-3)GalNAc = target: Gal3S(b1-3)GalNAc
Outline: as §1

Gal3S(b1-3)GlcNAc = target: Gal3S(b1-3)GlcNAc
Outline: as §1

B1: CFEM-CGl (Candida glabrata), Q6FRS0 (protein)
chain: VLATPPACLLACVAQVSKQSSQCHTLNQVGCFCENENTAIKNCLDSICPNGNSDAAYTAFKNSCGDVGKAVASV
In the case of B1, the “glycan array binding signal (z-score)” value [1] is reported as -0.107, the “glycan array binding signal (z-score)” value [2] is reported as -0.096 and the “glycan array binding signal (z-score)” value [3] is reported as 0.09. For the same binder, the “glycan array binding signal (z-score)” value [4] was -0.192, the “glycan array binding signal (z-score)” value [5] was 0.039 and the “glycan array binding signal (z-score)” value [6] was 0.454. For the same binder, the “glycan array binding signal (z-score)” value [7] was -0.009, the “glycan array binding signal (z-score)” value [8] was 0.84 and the “glycan array binding signal (z-score)” value [9] was 0.94. The “glycan array binding signal (z-score)” value [10] was 0.751, the “glycan array binding signal (z-score)” value [11] was -0.249 and the “glycan array binding signal (z-score)” value [12] was -0.422. For the same binder, the “glycan array binding signal (z-score)” value [13] was -0.483, the “glycan array binding signal (z-score)” value [14] was -0.249 and the “glycan array binding signal (z-score)” value [15] was -0.329. For the same binder, the “glycan array binding signal (z-score)” value [16] was 0.008, the “glycan array binding signal (z-score)” value [17] was -0.062 and the “glycan array binding signal (z-score)” value [18] was 0.894. For the same binder, the “glycan array binding signal (z-score)” value [19] was -0.013, the “glycan array binding signal (z-score)” value (Gal(b1-4)GlcNAc6P) was -0.285 and the “glycan array binding signal (z-score)” value (Gal(b1-6)Gal) was 0.159. The “glycan array binding signal (z-score)” value (Gal3S(b1-3)GalNAc) was -0.312 and the “glycan array binding signal (z-score)” value (Gal3S(b1-3)GlcNAc) was 0.064.
